The structures appear in SMILES notation.

The assay concerns the target topoisomerase II from Candida albicans (Candida albicans, UniProt P87078). Nature of the assay: biochemical.
UniProt P87078, sequence (P87078 whole entry, looked up): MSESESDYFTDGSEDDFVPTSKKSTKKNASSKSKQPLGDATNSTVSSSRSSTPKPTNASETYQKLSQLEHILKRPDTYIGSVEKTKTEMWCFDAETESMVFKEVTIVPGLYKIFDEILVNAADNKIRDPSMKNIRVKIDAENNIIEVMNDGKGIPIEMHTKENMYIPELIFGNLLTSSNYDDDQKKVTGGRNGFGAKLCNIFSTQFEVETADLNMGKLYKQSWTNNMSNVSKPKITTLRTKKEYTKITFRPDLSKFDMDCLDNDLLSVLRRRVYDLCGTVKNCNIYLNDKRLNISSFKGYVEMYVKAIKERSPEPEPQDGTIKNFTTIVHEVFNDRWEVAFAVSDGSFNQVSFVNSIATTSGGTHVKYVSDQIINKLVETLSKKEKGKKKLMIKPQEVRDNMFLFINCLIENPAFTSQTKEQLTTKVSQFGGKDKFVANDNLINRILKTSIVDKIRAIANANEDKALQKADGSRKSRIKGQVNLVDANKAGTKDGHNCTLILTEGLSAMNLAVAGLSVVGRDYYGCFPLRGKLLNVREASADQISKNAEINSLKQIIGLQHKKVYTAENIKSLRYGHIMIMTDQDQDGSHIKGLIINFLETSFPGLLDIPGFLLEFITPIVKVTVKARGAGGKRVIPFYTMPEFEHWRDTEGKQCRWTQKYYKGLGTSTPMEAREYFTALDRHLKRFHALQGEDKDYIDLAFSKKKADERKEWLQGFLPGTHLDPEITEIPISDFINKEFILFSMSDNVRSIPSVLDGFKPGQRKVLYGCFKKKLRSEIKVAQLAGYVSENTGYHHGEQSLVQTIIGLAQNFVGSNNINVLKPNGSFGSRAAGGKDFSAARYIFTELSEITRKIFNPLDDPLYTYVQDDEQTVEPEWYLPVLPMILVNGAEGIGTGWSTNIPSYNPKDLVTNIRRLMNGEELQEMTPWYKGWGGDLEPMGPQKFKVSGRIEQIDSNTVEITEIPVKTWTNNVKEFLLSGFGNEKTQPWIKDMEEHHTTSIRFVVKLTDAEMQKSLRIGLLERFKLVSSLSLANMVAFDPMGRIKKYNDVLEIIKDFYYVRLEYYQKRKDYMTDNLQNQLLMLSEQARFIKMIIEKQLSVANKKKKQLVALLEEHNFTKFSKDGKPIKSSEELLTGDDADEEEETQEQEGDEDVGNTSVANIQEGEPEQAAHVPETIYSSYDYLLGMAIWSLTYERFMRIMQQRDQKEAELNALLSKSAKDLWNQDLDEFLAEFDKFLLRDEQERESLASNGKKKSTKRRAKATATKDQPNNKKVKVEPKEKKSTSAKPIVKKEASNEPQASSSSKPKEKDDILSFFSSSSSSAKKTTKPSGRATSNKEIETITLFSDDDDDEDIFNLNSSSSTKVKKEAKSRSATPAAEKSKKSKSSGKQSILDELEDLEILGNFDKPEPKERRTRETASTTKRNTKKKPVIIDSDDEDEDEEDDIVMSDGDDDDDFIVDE
What is called IC50 is the concentration at which inhibition is half-maximal. High values mean weaker potency, low ones greater potency. As to `O=C1O[C@H]2[C@@H]3OC(=O)c4cc(O)c(O)c(O)c4-c4c(O)c(O)c5oc(=O)c6c(c(O)c(O)c7oc(=O)c4c5c76)-c4c(cc(O)c(O)c4O)C(=O)OC[C@H]3OC(O)[C@@H]2OC(=O)c2cc(O)c(O)c(O)c2-c2c1cc(O)c(O)c2O` (mixture of isomers) [Punicalagin, punicalagin], the IC50 is 4.6 ± 0.4 µM.

With `O=C1OC[C@H]2OC(O)[C@H](O)[C@@H](O)[C@@H]2OC(=O)c2cc(O)c(O)c(O)c2-c2c(O)c(O)c3oc(=O)c4c(c(O)c(O)c5oc(=O)c2c3c54)-c2c1cc(O)c(O)c2O` (mixture of isomers) [Punicalin, punicalin], the IC50 worked out at 40.7 ± 0.8 µM.

The compound `O=c1oc2c(O)c(O)cc3c(=O)oc4c(O)c(O)cc1c4c23` [Ellagic Acid, ellagic acid] displayed an IC50 of 53.9 ± 0.2 µM.

Compound `COc1cc([C@@H]2c3cc4c(cc3[C@@H](O[C@@H]3O[C@@H]5CO[C@@H](C)O[C@H]5[C@H](O)[C@H]3O)[C@H]3COC(=O)[C@H]23)OCO4)cc(OC)c1O` [Etoposide, etoposide, reference compound] yielded an IC50 of 15.9 ± 0.7 µM.

The values above are taken from publication PMC8073005, “Antifungal Activity and DNA Topoisomerase Inhibition of Hydrolysable Tannins from Punica granatum L” (International Journal of Molecular Sciences, 2021).
